Substitutions are numbered along the chain they refer to. Results are given in words; binding and its absence hold for the method and conditions named. Some results given as binding are weak or reduced against the parent protein; the word gives no strength.
Legend:
Test in all cases: binding of fluorescently labelled peptide to transfected cells, plate fluorescence scan; 10 nM myr-preS1-Al633 peptide in DMEM, 20 min, 37°C, on NTCP/Ntcp-transfected HEK293 cells in 24-well plates; washed with DMEM 2 min at 37°C; plates scanned at room temperature (Typhoon FLA 7000, 633 nm), total signal per area; only the binder purified
[1] = target: T1, human Na+/taurocholate co-transporting polypeptide (NTCP), wild type (human) (UniProt Q14973)
T1 sequence: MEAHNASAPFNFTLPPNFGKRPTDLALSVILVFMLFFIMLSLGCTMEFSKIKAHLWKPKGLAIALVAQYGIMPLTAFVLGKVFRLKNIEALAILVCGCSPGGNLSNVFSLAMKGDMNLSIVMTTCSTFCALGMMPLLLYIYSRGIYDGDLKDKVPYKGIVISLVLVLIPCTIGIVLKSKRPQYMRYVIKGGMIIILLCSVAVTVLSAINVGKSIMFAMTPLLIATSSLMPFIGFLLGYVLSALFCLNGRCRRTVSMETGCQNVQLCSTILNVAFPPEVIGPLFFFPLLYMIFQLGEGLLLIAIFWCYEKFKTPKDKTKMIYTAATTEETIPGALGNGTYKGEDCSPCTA

[2] = target: T2, sodium-dependent organic anion transporter (SOAT) (UniProt Q3KNW5)
T2 sequence: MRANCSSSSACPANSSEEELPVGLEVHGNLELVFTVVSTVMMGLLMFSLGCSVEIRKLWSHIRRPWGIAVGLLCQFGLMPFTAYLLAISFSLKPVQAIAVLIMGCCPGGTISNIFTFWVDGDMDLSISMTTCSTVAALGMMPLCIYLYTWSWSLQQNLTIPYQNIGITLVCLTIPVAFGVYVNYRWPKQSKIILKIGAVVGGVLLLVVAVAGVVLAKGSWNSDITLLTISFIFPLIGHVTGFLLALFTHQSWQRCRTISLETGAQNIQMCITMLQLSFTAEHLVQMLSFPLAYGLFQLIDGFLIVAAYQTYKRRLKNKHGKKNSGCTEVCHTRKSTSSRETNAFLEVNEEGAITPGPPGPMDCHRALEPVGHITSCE

[3] = target: T3, Saguinus oedipus (cotton-top tamarin) Ntcp S158G (Saguinus oedipus)
T3 sequence: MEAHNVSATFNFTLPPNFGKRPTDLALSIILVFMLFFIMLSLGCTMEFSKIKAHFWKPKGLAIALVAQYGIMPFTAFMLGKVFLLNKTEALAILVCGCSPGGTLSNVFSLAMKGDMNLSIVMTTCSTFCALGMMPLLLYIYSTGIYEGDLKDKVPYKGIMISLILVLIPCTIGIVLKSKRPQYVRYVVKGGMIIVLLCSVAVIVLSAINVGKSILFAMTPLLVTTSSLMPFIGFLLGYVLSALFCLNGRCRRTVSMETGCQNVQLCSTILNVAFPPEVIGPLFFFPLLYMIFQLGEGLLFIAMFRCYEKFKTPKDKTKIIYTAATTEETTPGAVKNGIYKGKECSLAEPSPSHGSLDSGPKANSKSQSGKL

[4] = target: T4, Callithrix jacchus (common marmoset) Ntcp, wild type (Callithrix jacchus) (UniProt F7HA36)
T4 sequence: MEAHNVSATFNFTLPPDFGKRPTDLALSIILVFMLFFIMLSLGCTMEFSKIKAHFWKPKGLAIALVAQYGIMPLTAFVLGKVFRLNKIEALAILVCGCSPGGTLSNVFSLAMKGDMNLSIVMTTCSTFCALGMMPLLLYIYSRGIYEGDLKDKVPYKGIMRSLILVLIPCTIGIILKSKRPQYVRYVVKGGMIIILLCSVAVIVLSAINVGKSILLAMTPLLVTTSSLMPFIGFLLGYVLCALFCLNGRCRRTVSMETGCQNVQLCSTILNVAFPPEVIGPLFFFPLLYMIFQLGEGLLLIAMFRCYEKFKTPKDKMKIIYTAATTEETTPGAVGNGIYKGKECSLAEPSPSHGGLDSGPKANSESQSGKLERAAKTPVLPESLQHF

[5] = target: T5, human NTCP G158V (human) (UniProt Q14973)
T5 sequence: T1 sequence with G158V

HBV myr-preS1-Al633-peptide (from UniProt P03138 2-48)
binding [1]: binds | binding [2]: no binding (tested: 10 nM) | binding [3]: binds | binding [4]: binds | binding [5]: no binding (tested: 10 nM)

— article PMC6005513
